According to article PMC4336329 (PLoS ONE, 2015):
Screen size: about 310,000 compounds; about 2,200 (0.71%) showed an effect of 50% or more. The effect is printed as a negative number. Some of the results follow.

target: human ether-à-go-go-related gene (hERG) potassium channel (human, UniProt Q12809); assay: primary screen, population patch clamp on CHO cells stably expressing hERG
Sequence (Q12809 whole entry, looked up): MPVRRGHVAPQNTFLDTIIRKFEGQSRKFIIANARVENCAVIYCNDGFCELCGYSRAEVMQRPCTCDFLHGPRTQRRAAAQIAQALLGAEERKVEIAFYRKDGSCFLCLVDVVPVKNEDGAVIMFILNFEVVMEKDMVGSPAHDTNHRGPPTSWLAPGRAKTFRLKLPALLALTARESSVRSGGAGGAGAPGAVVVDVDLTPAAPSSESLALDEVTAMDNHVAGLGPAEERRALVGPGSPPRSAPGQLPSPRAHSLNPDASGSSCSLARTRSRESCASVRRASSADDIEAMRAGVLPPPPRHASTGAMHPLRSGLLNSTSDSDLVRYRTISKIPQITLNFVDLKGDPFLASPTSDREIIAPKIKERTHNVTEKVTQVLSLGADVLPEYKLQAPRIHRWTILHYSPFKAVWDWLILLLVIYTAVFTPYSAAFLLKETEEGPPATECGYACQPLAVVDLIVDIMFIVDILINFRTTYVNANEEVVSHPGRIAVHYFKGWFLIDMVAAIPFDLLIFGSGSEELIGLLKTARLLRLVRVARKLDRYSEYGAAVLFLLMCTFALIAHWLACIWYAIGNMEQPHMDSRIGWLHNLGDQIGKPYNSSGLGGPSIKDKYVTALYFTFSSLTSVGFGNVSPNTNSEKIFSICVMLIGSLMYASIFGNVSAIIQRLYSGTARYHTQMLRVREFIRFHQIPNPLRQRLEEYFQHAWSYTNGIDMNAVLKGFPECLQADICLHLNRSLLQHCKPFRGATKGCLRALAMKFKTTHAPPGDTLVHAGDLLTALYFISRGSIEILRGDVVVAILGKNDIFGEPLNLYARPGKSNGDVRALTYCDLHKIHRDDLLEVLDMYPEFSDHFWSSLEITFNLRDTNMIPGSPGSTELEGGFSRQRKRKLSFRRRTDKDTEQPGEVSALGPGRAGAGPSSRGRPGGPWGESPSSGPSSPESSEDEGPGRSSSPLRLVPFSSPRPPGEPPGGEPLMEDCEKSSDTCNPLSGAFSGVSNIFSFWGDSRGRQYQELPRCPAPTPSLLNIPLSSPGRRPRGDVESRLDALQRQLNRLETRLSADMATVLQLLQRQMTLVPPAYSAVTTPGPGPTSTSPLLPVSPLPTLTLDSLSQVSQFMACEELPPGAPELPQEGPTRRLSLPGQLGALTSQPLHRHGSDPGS

Going from O=C(Cc1ccccc1)Nc1cc2c(cc1Cl)OCCCO2 to O=C(NCc1ccc2c(c1)OCO2)c1cccc(S(=O)(=O)N2CCCCC2)c1, the “hERG current change (%, negative = inhibition) at 1uM” value falls from 12% to 9.24%.

First: Cc1ccc(NC(=O)NCC(c2cccnc2)N2CCOCC2)cc1 (centres unmarked)
Second: COc1ccc(NC(=O)Nc2cccnc2)cc1
The “hERG current change (%, negative = inhibition) at 1uM” value of the first is higher: 11.5% for the first, 4.13% for the second.

Compared with Clc1ccc(OCc2nn3c(C4CCCCC4)nnc3s2)c(Cl)c1, O=C(Oc1c(Cl)cc(Cl)c2cccnc12)N1CCCCC1 is higher in “hERG current change (%, negative = inhibition) at 1uM” value: 5.75% for the first, 7.26% for the second.

Compared with O=C(CCc1nnc2ccc(N3CCOCC3)nn12)Nc1ccc(F)cc1F, COc1cc(NC(=O)C2CCN(S(=O)(=O)c3ccc(Cl)cc3)CC2)ccc1-n1cnnn1 is higher in “hERG current change (%, negative = inhibition) at 1uM” value: 7.21% for the first, 18.4% for the second.

Going from CCc1ccc(NC(=O)CSc2nc(=O)n(CCCN(C)C)c3c2CCC3)cc1 to COc1cccc2c(=O)n(CC(=O)Nc3cccc(F)c3)ccc12, the “hERG current change (%, negative = inhibition) at 1uM” value rises from 0.263% to 10.5%.

First: COc1ccc2oc(C(=O)OCC(=O)N(Cc3ccccc3)C(C)C)c(C)c2c1
Second: O=C(COc1ccc2c(-c3ccccc3)cc(=O)oc2c1)NCC(O)c1ccccc1 (centres unmarked)
The “hERG current change (%, negative = inhibition) at 1uM” value of the first is higher: 8.79% for the first, -1.49% for the second.

First: O=C(NCCS(=O)(=O)N1CCN(Cc2ccccc2)CC1)c1ccccc1
Second: CCNC(=O)Cn1c(=O)c(=O)n(Cc2ccccc2)c2ccc(Cl)cc21
The “hERG current change (%, negative = inhibition) at 1uM” value of the first is lower: -3.02% for the first, 6.7% for the second.

Going from COc1ccc(NC(=O)CN(C)C(=O)/C=C/c2cn(-c3ccccc3)nc2-c2ccc(F)cc2)cc1 to COc1ccc(NS(=O)(=O)c2cccc(C(=O)NNC(=O)c3ccc(=O)[nH]c3)c2)cc1, the “hERG current change (%, negative = inhibition) at 1uM” value falls from 5.97% to -7.12%.

Compared with Cc1nn(C(=O)c2nn(C)cc2[N+](=O)[O-])c(C)c1Cl, Cc1sc2nc3c(C(=O)N4CCCC4)cc(C(=O)c4ccccc4O)cn3c(=O)c2c1C is lower in “hERG current change (%, negative = inhibition) at 1uM” value: 4.26% for the first, -3.59% for the second.

Compared with COc1ccc(C(=O)N(C)C2(C)CCS(=O)(=O)C2)cc1OC (centres unmarked), COc1ccc(C2CCCN2C(=O)Nc2cccc(C(C)=O)c2)cc1OC (centres unmarked) is higher in “hERG current change (%, negative = inhibition) at 1uM” value: 2.23% for the first, 3.98% for the second.

First: COc1cccc(N2CCN(C(=O)c3ccc(CS(=O)c4ccc(Cl)cc4)o3)CC2)c1 (centres unmarked)
Second: Cc1cccc(N2CCN(C(=O)c3cc4c(=O)n(C)c5ccccc5c4n3C)CC2)c1C
The “hERG current change (%, negative = inhibition) at 1uM” value of the first is lower: 0.509% for the first, 8.68% for the second.

First: C=CCCC1(C)C(=O)N(c2ccccc2)c2ccccc21 (centres unmarked)
Second: O=C(NCCO)N1c2ccccc2Sc2ccccc21
The “hERG current change (%, negative = inhibition) at 1uM” value of the first is lower: 4.88% for the first, 6.79% for the second.

Going from COc1ccc(-c2cc(C)no2)cc1S(=O)(=O)NCCCN1CCCCCC1 to Cc1ccc2c(c1)N(CC(=O)N1CCCCCC1)C(=O)C(C)O2 (centres unmarked), the “hERG current change (%, negative = inhibition) at 1uM” value falls from 14.5% to 7.72%.

Compared with COc1ccc(OC)c(/C=C2\SC(=S)N(Cc3cccnc3)C2=O)c1, C=CCc1ccc(OCCCCOc2ccc(C(=O)O)cc2)c(OC)c1 is higher in “hERG current change (%, negative = inhibition) at 1uM” value: 0.429% for the first, 11.5% for the second.

Compared with O=C(NC(=S)N1CCCCC1)c1cccs1, Cc1ccc(SCc2ccc(C(=O)N3CCCCC3)cc2)cc1 is higher in “hERG current change (%, negative = inhibition) at 1uM” value: 11.1% for the first, 14.5% for the second.

Compared with O=c1cc(Cl)c(-c2ccccc2)nn1Cc1ccc(Cl)cc1, O=C(Cc1cn(Cc2cccc(Cl)c2)c2ccccc12)N1CCCC1 is lower in “hERG current change (%, negative = inhibition) at 1uM” value: 8.53% for the first, 3.34% for the second.

First: Cc1noc(C)c1S(=O)(=O)NC1CCCc2ccccc21 (centres unmarked)
Second: O=c1[nH]c(C2CCCN(S(=O)(=O)c3ccc(F)cc3)C2)nc2c1nnn2Cc1ccccc1 (centres unmarked)
The “hERG current change (%, negative = inhibition) at 1uM” value of the first is higher: 8.72% for the first, 7.82% for the second.

Compared with COC(=O)CCCC1=CC2=C(c3ccccc3)C(=O)C(C)(OC(=O)C3CCCC3)C(=O)C2=CN1Cc1ccc(OC)cc1 (centres unmarked), COc1ccc(-c2noc(CCC(=O)NC3CCCCC3)n2)cc1 is lower in “hERG current change (%, negative = inhibition) at 1uM” value: 12% for the first, 10.6% for the second.

First: O=C1NC(=S)N/C1=C/C=C/c1ccccc1
Second: Nc1nc2n(n1)C(c1ccco1)CC(c1ccccc1)N2 (centres unmarked)
The “hERG current change (%, negative = inhibition) at 1uM” value of the first is higher: 4.7% for the first, -1.88% for the second.

Going from CCNC(=O)NC(=O)CSc1ccc2ccccc2c1 to Cc1cccc(OCC(=O)NCCCNC(=O)c2cnccn2)c1, the “hERG current change (%, negative = inhibition) at 1uM” value falls from 12% to 9.69%.

First: CCCc1cc(=O)oc2c(C)c(OC(C)C(=O)NCCN3CCOCC3)ccc12 (centres unmarked)
Second: COc1cccc(/C=N/NC(=O)CNC(=O)c2ccc(S(=O)(=O)N3CCOCC3)cc2)c1OC
The “hERG current change (%, negative = inhibition) at 1uM” value of the first is lower: -5.59% for the first, 3.36% for the second.

Compared with CC1CCC(NC(=O)c2ccc3nc[nH]c3c2)CC1 (centres unmarked), O=C(Nc1nnc(Cc2ccc(Cl)cc2)s1)c1ccncc1 is higher in “hERG current change (%, negative = inhibition) at 1uM” value: 0.812% for the first, 10.3% for the second.
